Read counts are not given, so values of variants with three or more changes are uncertain.

Sequences and labels used below:
B1: LINE1-mini (parent)
chain: GGCAGAGCUCAACACAGCGUGGCAAAGUGGCUGUGGCUAGACUGCC

The variants in the data set derive from B1. Put plainly: self-cleavage, relative activity (ratio to wild type); higher = more cleavage; in vitro, sequencing; the parent is a self-cleaving ribozyme.
For the variant GGCGGAGCUCGACACAGCUUGGCAAAGUGGCUGUGGCUAGACUGCC, the self-cleavage was 0.04.
On to GGCCGAGCGCAACACAGCGUGGCAAAGUGGCUGUGGCUAGACUACC, for which the self-cleavage stood at 0.11.
For GGCGGAGCUCAACCCAGCGUGGUGAAGUGGCUGUGGCUAGACUGCC the value was 0.07; for GGCGGAGCUCAACCGCACGUGGCAAAGUGGCUGUGGCUAGACUGCC, 0.07.
With GGCGGAGCUCAACACCGCGUGGCAAAGUGGCUGUGGCCAGACGGCC, the self-cleavage worked out at 0.
As for GGCGGAGCUCAGCACAGAGUGGUAAAGUGGCUGUCGCUAGACUGCC, the self-cleavage turned out to be 0.
For GGCGGAGCUCAACCCAGCGUGGCAAAGUGGCUUUGGCUAGACUGCC the value was 0.28; for GGCGGAGCUCAACGCAGCGUGGCACAGUGGCUGUGGCUAAACUGAC, 0.03; for GGCGGCGCUCAACACAGCGUGGAAAAGUGGCUGUGCCUAUACUGCC, 0.21.
For GGCGGAGCUCAUCACAGCGUGCCAAAGUAGCUGUGGCUAGACUGCU the value was 0.23.
As to GGCGGAGCUCGAUACAGCGUGGCAAAGUGUCUGUGGCUAGACUGGC, the self-cleavage is 0.04.
For GGCCGAGCUCAACACAGCGUGGCAAAGAGACUGUCGCUUGAAUGCC the value was 0.03; for GGCGGAGCUCAUCACAGCGUGGCAAAUUGGCUGUGGCUAGACUGCC, 0.27; for GGCGGAGCUCAACACCGCGUGUCACAGUGGCUGUGGUUAGACCGCC, 0.
In the case of GGCCGAGCUCAACACAGCGUGGCAAAGUGGCUGAAGCUCGACUGCC, the self-cleavage was 0.
Regarding GGCGGAGCUCCACACAGCGUGGCAAAGUGGCAGUGGCUAGACUGCC, the self-cleavage amounted to 0.02.
In the case of GGCCGAGCUCAACACAGCGUGGCAAAGUGGCUGUGGCUAGACAGAC, the self-cleavage was determined as 0.04.
Take GGCCGAGCUCAACACAGCGGGGGAAAGUGGCUGUGGCUAGACUGCC: the self-cleavage was determined as 0.07.
The same measure for GGCGGAGCUCAACGCAGCGUGGCAAAGUGGCUGUGGCUAGACAGCC: 0.04; for GGCGGAGCUCCACACAGCGUGGCAAAAUGGCUGUGGCUAGACUGCC: 0.02; for GGCGGAGCUCAACCCUCCGUGGCAAAGUGGCCGUGGCUAGACUGCC: 0.02.
On to GGCGGCGCUCAACACACCGUGGCAAAGUGGCUGUCGCGAGACUGCC, for which the self-cleavage worked out at 0.03.
With GGCGGUGUUCAACACAGCAUGGCAAAGUGGCUGUGGCUAGACUGCC, the self-cleavage was found to be 0.21.
GGCGGUGCUCAACACAGCGUGGGAAAGUGGCUGUGGCUAGACUGCC: the self-cleavage amounted to 0.35.
For the variant GGCGGUGCUCAACACAGCGUGGCAAAGUGGCUGUCGCUAGACUGCC, the self-cleavage is 0.02.
Consider GGCGGUUGUCAACACAGCGGGGCAAAGUGGCUGUUGCUAGAAUGCC, for which the self-cleavage was 0.18.
The same measure for GGCGGGGCUCAACACAGAGUGGCAAAAUGGUUGUGGUCAGACUGCC: 0.01; for GGCGGAGCUCAACCCAGCGUGGCAAAGUGGCUGCGGCUAGACUGCC: 0.07.
GGCCGAGCUCAACACAGCGUGGCAAAGUGGCGGUGGCGAGACUGUC: the self-cleavage was 0.01.
For the variant GGCGGAGCUCAACUCAGAGUAGCAAAGUGUCUGUGGCUAGACUGCC, the self-cleavage stood at 0.14.
Turning to GGCGGCGCUCAACACAGCGUGGCAAAGUGGCUGUGGCUAGGCUGCC, the self-cleavage is 1.04.
As to GGCCGAGCUCAACACAGCGUGGCAAAGGUGCUGUGGAUAGACUGCC, the self-cleavage was determined as 0.06.
As to GGCGGAGCUCGACACAGCGUGGCAAACUGGCUGUGGCUAGACCGCC, the self-cleavage worked out at 0.01.
Regarding GGCGGAGCUCAACACCGCGUCGCAAAGUGGCUGUGCCUAGACUGCC, the self-cleavage was determined as 0.05.
As to GGCGGAGCUCACCACAGCGUGGCGAAGUGGCUGUGGCCAGACUGCC, the self-cleavage was 0.15.
As to GGCGGAGCUCAACACCGCGUGGCAAAGUGGUUGUGGCUAGACUGCC, the self-cleavage is 0.07.
With GGCGGAGCUCCACACAGCGUGGGAAAGUGGCUUUGGCUAGACUCCC, the self-cleavage was 0.01.
For GGCGGCGCUCAACACAGAUUGGCAAAGUGGCUGUGGCUAGACUGCC the value was 0.25.
Turning to GGCCGAGCUCAACACAGCGUGGCAAAGUGGCUGUGGCAAGCCUGCC, the self-cleavage amounted to 0.24.
On to GGCCGAGCUCAACACAGCGCGACAAGGUGGCUGUGGCUAGACUGCC, for which the self-cleavage was 0.01.
GGCGGAGCUCAACGCGGCGUGGCAAAGGGGCUGUGGCUAGCCUGCC: the self-cleavage turned out to be 0.01.
Consider GGCGGAGCUCAUCACAGAGUGGCAAAGUGGCUGUGGCUAGACUGCC, for which the self-cleavage worked out at 0.03.
As for GGCGGAGCUCCAAACUGCGUGGCAACGUGGCUGUGGCUAGACUGCC, the self-cleavage was determined as 0.01.
GGCGGAGCUCAACACCGCGUGGCAAAGCGGCUGUGGCUGGACUGCC: the self-cleavage was found to be 0.
For GGCGGAGCUCACCACAGCGUGGCAAAGGGGCUGUGGCUAGUGUGCC, the self-cleavage came to 0.02.
Consider GGCGGAGCUCAUCACAGCGUGGCAAAGUGGCUGUGACUAGACUGAC, for which the self-cleavage came out at 0.14.
For GGCCGAGCUCAACACAGCGUGGCAAAGUGGCCGUGGCUAGACUGUG the value was 0.64; for GGCGGAGCUCAGCAGAGCGUGGCAAAGUGGCUGUGGCUUGACUGCC, 0.06; for GGCGGAGCUCAGCACAGCGUGUCAAAGUGGCUAUGGCUAGACUUCC, 0.03.
Consider GGCCGAGCUCAACACAGCGUGGCAAAGUGGCUGGUGCUAGACUGCC, for which the self-cleavage was 0.1.
Regarding GGCCGAGCUCAACACAGCGUGGCAAAGUGGCUGGAGCUAGACUGCC, the self-cleavage came to 0.03.
Consider GGCGGCGCUCAACACAGCGUGGCAGCGUGACUGUGGCUAGACUGCC, for which the self-cleavage came out at 0.17.
For GGCGGAGCUCCACACAGCGUGGCAAAGUGACUGUGGCUAGACUGCA the value was 0; for GGCCGAGCGUAACACAGCGUGGCAAAGUGGCUGUGGCUAGACUGCC, 0.08.
The same measure for GGCGGAGCUCAACACGGCGAGGCAACGUGGCUGUGGCUAGACUGCC: 0.09; for GGCGGAGCUCGACACAGCAUGGUAAAGUGGCUGUGGCUAGACAGCC: 0.04.

These data come from the RNAGym collection of RNA variant scans (doi:10.7554/elife.90254).
